This note sets out measurements from the supplement of paper PMC11417369.

± gives the standard deviation of the averaged measurements. The list shows a part of the results.

The test relates to PfAP2-I AP2 domain 3 (GST-tagged). Description: gcPBM binding intensity (ln(normalized median fluorescence intensity)); higher = stronger DNA binding. The method in brief:
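Binding intensity values are the highest Masliner-normalised natural-log median intensity among replicate spots of either probe orientation. The binding step lasted 1 h in 1× PBS with 1% milk, 0.2 mg/ml BSA, 0.5% salmon testes DNA and 0.03% Triton X-100, using GST-tagged P. falciparum DNA-binding domains expressed in E. coli on an Agilent 4 × 180k array of primer-extended double-stranded 36-bp intergenic genomic probes plus negative controls. Alexa488 anti-GST antibody and a 488 nm scan detected bound protein.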
On to “AGCCAAACCTTAAATTTAGCAATAAGTTTACAGGTC [CACACA_negctrl_site360]”, for which the “gcPBM binding intensity (ln)” value came to 7.4 ± 0.64.
“TATATATGCATATACATACACACATAACACATACGT [CACACA_site3833]”: the “gcPBM binding intensity (ln)” value amounted to 8.24 ± 0.39.
As for “AATGTTTTATTTTGAAGTACATTTAAGAATTTTTTA [XGTACX_site7814]”, the figure is 7.61 ± 0.47; as for “TTATGTTCTTTAAAACCACACACCCCCCAACCCCCC [CACACA_site8742]”, 10.9 ± 0.44; as for “TATGAAATTATAATTACACACAGGAAAATAAAATGT [CACACA_site1517]”, 8.29 ± 0.64.
As for “ATATAATAATAAGGCACACAAATTAAAATATAAAAA [CACACA_site3710]”, the figure is 9.87 ± 0.67; as for “CATTTCATTTCTTAATGTACTTTATTCCACCACATA [XGTACX_site5943]”, 8.34 ± 0.16.
As for “TTTATTATTATATTATTTTAATTTTTCTTTAGTACA [GTGCAC_negctrl_site392]”, the figure is 7.46 ± 0.57; as for “AAATTAAATAAATTTACACACTAAAAATTACATATA [CACACA_site1054]”, 7.67 ± 0.33; as for “ATAAATATATGAAGTTGTACAAATAATTAACATTAT [XGTACX_site5740]”, 7.78 ± 0.45.
For the sequence “TACCATGTTCAAATTACACACATATAATCTAATATA [CACACA_site2008]”, the “gcPBM binding intensity (ln)” value came to 7.75 ± 0.47.
Turning to “ATTTTTTTTAATTTGTACAAATTTTGTTCACAATTT [CACACA_negctrl_site1301]”, the “gcPBM binding intensity (ln)” value came out at 7.89 ± 0.67.
As for “TATGTTAAAAAAAAATGTACATATGTTTTTGTTAAA [XGTACX_site4754]”, the figure is 7.74 ± 0.57; as for “ATACATTCAAAATATACACACATATATATATAATAT [CACACA_site950]”, 7.91 ± 0.44.
As for “TTTCCCCCATATAATGAACACACACCCTCCTCATAA [CACACA_site8110]”, the figure is 9.22 ± 0.26.
For “GACCCATTATTTTATTGTACTTTTATTATAACGTGA [XGTACX_site156]”, the “gcPBM binding intensity (ln)” value turned out to be 8.26 ± 0.4.
“AAATGAATAATGATATACAAACAAATCATGTGTTAA [XGTACX_negctrl_site150]”: the “gcPBM binding intensity (ln)” value was found to be 7.33 ± 0.59.
Consider “ATGTGTGTATACATCAATTATATATATATTATGTAT [GTGCAC_negctrl_site720]”, for which the “gcPBM binding intensity (ln)” value turned out to be 7.91 ± 0.51.
For “AAAATAAAAATAACAACACACATATACTATAATATT [CACACA_site2769]”, the “gcPBM binding intensity (ln)” value was determined as 7.61 ± 0.48.
Next, “ATAATATAGAACAATACATGCAAATGGCTTAAATTT [TGCATGCA_site521]”: 7.69 ± 0.81.
Next, “GGAAGCTAATTACACACATGCATATTTTTTTTTCAA [TGCATGCA_site548]”: 8.16 ± 0.83; “ATGGGACAGATATATACACACATATAAATATAAATA [CACACA_site6684]”: 7.81 ± 0.38; “AAAGGGACATATATATCACACACAAAAATTAGTCCC [CACACA_site8897]”: 7.78 ± 0.63.
As for “TAATATCTACATATATGTACATATATATATATATAT [XGTACX_site7979]”, the figure is 9.11 ± 0.23; as for “TTATATATGTATTAATGTACATAGTTGAGAAAGGTA [XGTACX_site1511]”, 8.12 ± 0.54.
“TACAAAATACAAAAATGTACATAAAAATTTATAAAA [XGTACX_site6861]”: the “gcPBM binding intensity (ln)” value was 7.78 ± 0.6.
On to “TACAGATACGGACACACACACACACCCAGACAAAAA [CACACA_site4432]”, for which the “gcPBM binding intensity (ln)” value turned out to be 8.3 ± 0.16.
Next, “ATATTAAAATATAATCGTACAATTAAATTTTTTTTT [XGTACX_site2739]”: 7.55 ± 0.44; “AATAAATAAAAAATTACACACATATTTATAAATATA [CACACA_site7584]”: 7.49 ± 0.46.
As for “AAGATAAACTTTTTTAATTAATTTAATTTTTTTTTT [GTGCAC_negctrl_site386]”, the figure is 7.21 ± 0.67; as for “TTATAATAGTTAATATGTACATATTTAATAAATAAT [XGTACX_site3183]”, 7.75 ± 0.3.
As for “CCCCCCCACGAACACACACACATACATACCACATAT [CACACA_site7149]”, the figure is 10.2 ± 0.17.
For “TAAAATAAGTTAAAAAGTACATAATTATAATAAATA [XGTACX_site8108]”, the “gcPBM binding intensity (ln)” value was found to be 7.58 ± 0.5.
Take “CACAAAAATAAATATAAACACACAATAAATAAATAA [CACACA_site8197]”: the “gcPBM binding intensity (ln)” value amounted to 7.72 ± 0.81.
As for “ATATATATATATATTCCACACACACCCAAAAAAAAA [CACACA_site9215]”, the figure is 9.44 ± 0.33; as for “TTTGTTTTTATTTACACATGCAAAAAAAAAAAAAAA [TGCATGCA_site655]”, 8.3 ± 0.73.
As for “TATGTGTATAATAAAAGTACATATATTATTATATAA [XGTACX_site8556]”, the figure is 7.79 ± 0.29; as for “TATTTCGTAATTTAATAATATACAAGAAATATATAT [XGTACX_negctrl_site143]”, 7.47 ± 0.45.
As to “CATATAATAAAAAATGTACACACATAAGAAAATTTA [CACACA_site8943]”, the “gcPBM binding intensity (ln)” value amounted to 7.86 ± 0.44.
On to “TAAAATAATAAAACAACACACAAATAGTTAAAATAG [CACACA_site1680]”, for which the “gcPBM binding intensity (ln)” value stood at 7.93 ± 0.59.
As for “ATTGACGTCATATAAACATGCACATTTTGGATGTTT [TGCATGCA_site985]”, the figure is 7.82 ± 0.74.
For the sequence “TTTTTTTTAAATTGTGGTACACAAATTCATATATAT [XGTACX_site8944]”, the “gcPBM binding intensity (ln)” value turned out to be 8 ± 0.23.
For the sequence “TAAATATAATAAGAACAAACAAAATAGTACAATATA [TGCATGCA_negctrl_site364]”, the “gcPBM binding intensity (ln)” value was determined as 7.97 ± 0.45.
Next, “GTCATATTATTATTACGTACTTAAATATATAATATA [XGTACX_site3405]”: 7.95 ± 0.24; “AAAAGAAAAAAAAGTACACACATGTATATTAATCGT [CACACA_site2528]”: 8.11 ± 0.67.
Take “TGTTAACTTAAAAAAATACCTACGGAAAAATCACAA [TGCATGCA_negctrl_site433]”: the “gcPBM binding intensity (ln)” value was determined as 7.67 ± 0.64.
Consider “AAAATGATAATACCAAGTACACATATGAAAAATACA [XGTACX_site6763]”, for which the “gcPBM binding intensity (ln)” value is 7.92 ± 0.52.
As to TAAATCATTTATTAAGTGCAATATTCTTTTTGAGAT, the “gcPBM binding intensity (ln)” value came out at 10.3 ± 0.28.
As for “TGTTTTCCCTTTAGTGTGCACGTATTTCTATTAACA [GTGCAC_site9847]”, the figure is 10.5 ± 0.18; as for “TAAAAACATTTAAATTGTACGGAAATAAAAATTTTT [XGTACX_site8225]”, 7.71 ± 0.48.
As for “ATATAAATATTAAATACACACATTTTTGATTAGGTT [CACACA_site7461]”, the figure is 7.67 ± 0.36; as for “ATATAATTTGATGGTTAACACACATATATATTATAT [CACACA_site8775]”, 7.72 ± 0.48; as for “TCATATAATCAAATATGTACATATTTTCAATTGAAT [XGTACX_site6831]”, 7.7 ± 0.47.
As for “ATATTTATTTAATGAACACACGATATATTATTTTAT [CACACA_site1602]”, the figure is 7.79 ± 0.54.
As for “TTATTTATTTTTTATACACACAATTATCTTTTTAAG [CACACA_site6162]”, the “gcPBM binding intensity (ln)” value turned out to be 7.8 ± 0.58.
As for “ATATAGAATATATTAACATGCAATAAGTAAAGGGGG [TGCATGCA_site1022]”, the figure is 8.925 ± 0.035.
